This is one part of the list.

Consider 40 sequences from paper PMC12820563, “FoxP3 forms a head-to-head dimer in vivo and stabilizes its multimerization on adjacent microsatellites”.

The target of this assay is T1, MBP-FoxP1dN (Mus musculus, UniProt P58462 326-579).
T1 sequence: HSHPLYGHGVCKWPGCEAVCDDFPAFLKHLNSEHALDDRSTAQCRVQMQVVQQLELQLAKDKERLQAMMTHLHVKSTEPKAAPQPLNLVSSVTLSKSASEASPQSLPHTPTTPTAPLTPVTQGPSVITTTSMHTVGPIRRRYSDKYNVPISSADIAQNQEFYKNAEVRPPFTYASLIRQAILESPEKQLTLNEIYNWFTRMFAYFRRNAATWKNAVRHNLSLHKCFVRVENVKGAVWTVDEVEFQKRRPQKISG
Nature of the assay: PD-seq (MBP pull-down with sequencing); 20 mM Tris-HCl pH 7.5, 100 mM NaCl, 1.5 mM MgCl2, 0.4 uM protein, 0.1 uM dsDNA library, 30 min, room temperature, amylose pull-down; high values mean tight binding. The conditions noted are these: protein: recombinant; tags: His6-MBP; chain copies: 2; dsDNA, one strand shown. Summed up:
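Binding is the reads-per-million enrichment of pull-down relative to input, pooled across replicates. For this, 0.4 µM His6-MBP-tagged mouse FoxP3 or FoxP1 fragment lacking the N-terminus, made in E. coli, was incubated with 0.1 µM Klenow-filled double-stranded degenerate DNA library for 30 min at room temperature in Tris pH 7.5 buffer with NaCl and MgCl2. Complexes bound to amylose resin were washed three times before proteinase K released the DNA for PCR barcoding and Illumina sequencing.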
Regarding “GATGATTGTTCTCCCAGCTGATGAATTCGACATATCGAGTAAACAAATTTTCCTAATCTTTCTGTTCAAGCGCCATCTAC”, the binding signal was 0.996 RPM ratio (pull-down/input).

In the case of “GATGATTGTTCTCCCAGCTGATGAATTCCGTAGGTCGAGTAAACAAATTTTCCTAATCTTTCTGTTCAAGCGCCATCTAC”, the binding signal is 0.73 RPM ratio (pull-down/input).

For “GATGATTGTTCTCCCAGCTGATGAATTCGACTCGTCGAGTAAACAAATTTTCCTAATCTTTCTGTTCAAGCGCCATCTAC”, the binding signal was 0.816 RPM ratio (pull-down/input).

Take “GATGATTGTTCTCCCAGCTGATGAATTTGGGAATTCGAGTAAACAAATTTTCCTAATCTTTCTGTTCAAGCGCCATCTAC”: the binding signal is 0.96 RPM ratio (pull-down/input).

As for “GATGATTGTTCTCCCAGCTGATGAATTCGGCTTCTCGAGTAAACAAATTTTCCTAATCTTTCTGTTCAAGCGCCATCTAC”, the binding signal was 0.747 RPM ratio (pull-down/input).

For the sequence “GATGATTGTTCTCCCAGCTGATGAATTAGGATCTTCGAGTAAACAAATTTTCCTAATCTTTCTGTTCAAGCGCCATCTAC”, the binding signal was 0.888 RPM ratio (pull-down/input).

Consider “GATGATTGTTCTCCCAGCTGATGAATTCAAGAAGTCGAGTAAACAAATTTTCCTAATCTTTCTGTTCAAGCGCCATCTAC”, for which the binding signal is 0.844 RPM ratio (pull-down/input).

Regarding “GATGATTGTTCTCCCAGCTGATGAATTAAGGGGATCGAGTAAACAAATTTTCCTAATCTTTCTGTTCAAGCGCCATCTAC”, the binding signal was 0.803 RPM ratio (pull-down/input).

As to “GATGATTGTTCTCCCAGCTGATGAATTGTAAGGCTCGAGTAAACAAATTTTCCTAATCTTTCTGTTCAAGCGCCATCTAC”, the binding signal is 0.862 RPM ratio (pull-down/input).

Take “GATGATTGTTCTCCCAGCTGATGAATTGGTGCCATCGAGTAAACAAATTTTCCTAATCTTTCTGTTCAAGCGCCATCTAC”: the binding signal was 0.972 RPM ratio (pull-down/input).

As for “GATGATTGTTCTCCCAGCTGATGAATTACGGGACTCGAGTAAACAAATTTTCCTAATCTTTCTGTTCAAGCGCCATCTAC”, the binding signal is 0.921 RPM ratio (pull-down/input).

For “GATGATTGTTCTCCCAGCTGATGAATTGAGTAGATCGAGTAAACAAATTTTCCTAATCTTTCTGTTCAAGCGCCATCTAC”, the binding signal was 0.923 RPM ratio (pull-down/input).

Turning to “GATGATTGTTCTCCCAGCTGATGAATTTGACACGTCGAGTAAACAAATTTTCCTAATCTTTCTGTTCAAGCGCCATCTAC”, the binding signal was 0.846 RPM ratio (pull-down/input).

Turning to “GATGATTGTTCTCCCAGCTGATGAATTAAGACTTTCGAGTAAACAAATTTTCCTAATCTTTCTGTTCAAGCGCCATCTAC”, the binding signal is 0.891 RPM ratio (pull-down/input).

As for “GATGATTGTTCTCCCAGCTGATGAATTATACCAATCGAGTAAACAAATTTTCCTAATCTTTCTGTTCAAGCGCCATCTAC”, the binding signal is 1.2 RPM ratio (pull-down/input).

In the case of “GATGATTGTTCTCCCAGCTGATGAATTTTCGTAATCGAGTAAACAAATTTTCCTAATCTTTCTGTTCAAGCGCCATCTAC”, the binding signal is 1.46 RPM ratio (pull-down/input).

Regarding “GATGATTGTTCTCCCAGCTGATGAATTACATAACTCGAGTAAACAAATTTTCCTAATCTTTCTGTTCAAGCGCCATCTAC”, the binding signal was 1.32 RPM ratio (pull-down/input).

With “GATGATTGTTCTCCCAGCTGATGAATTCGACAAATCGAGTAAACAAATTTTCCTAATCTTTCTGTTCAAGCGCCATCTAC”, the binding signal is 1.13 RPM ratio (pull-down/input).

As for “GATGATTGTTCTCCCAGCTGATGAATTACGGGTATCGAGTAAACAAATTTTCCTAATCTTTCTGTTCAAGCGCCATCTAC”, the binding signal was 1.04 RPM ratio (pull-down/input).

Turning to “GATGATTGTTCTCCCAGCTGATGAATTGTGTACATCGAGTAAACAAATTTTCCTAATCTTTCTGTTCAAGCGCCATCTAC”, the binding signal is 2 RPM ratio (pull-down/input).

As to “GATGATTGTTCTCCCAGCTGATGAATTGGCCGCTTCGAGTAAACAAATTTTCCTAATCTTTCTGTTCAAGCGCCATCTAC”, the binding signal was 0.879 RPM ratio (pull-down/input).

As to “GATGATTGTTCTCCCAGCTGATGAATTGCACATTTCGAGTAAACAAATTTTCCTAATCTTTCTGTTCAAGCGCCATCTAC”, the binding signal was 1.54 RPM ratio (pull-down/input).

For “GATGATTGTTCTCCCAGCTGATGAATTCTAGGCATCGAGTAAACAAATTTTCCTAATCTTTCTGTTCAAGCGCCATCTAC”, the binding signal is 1.05 RPM ratio (pull-down/input).

As to “GATGATTGTTCTCCCAGCTGATGAATTTGACCAATCGAGTAAACAAATTTTCCTAATCTTTCTGTTCAAGCGCCATCTAC”, the binding signal was 0.987 RPM ratio (pull-down/input).

For “GATGATTGTTCTCCCAGCTGATGAATTGCCCCCTTCGAGTAAACAAATTTTCCTAATCTTTCTGTTCAAGCGCCATCTAC”, the binding signal was 0.904 RPM ratio (pull-down/input).

“GATGATTGTTCTCCCAGCTGATGAATTAGGAACCTCGAGTAAACAAATTTTCCTAATCTTTCTGTTCAAGCGCCATCTAC”: the binding signal is 0.869 RPM ratio (pull-down/input).

For the sequence “GATGATTGTTCTCCCAGCTGATGAATTCTAAGGCTCGAGTAAACAAATTTTCCTAATCTTTCTGTTCAAGCGCCATCTAC”, the binding signal was 0.812 RPM ratio (pull-down/input).

Consider “GATGATTGTTCTCCCAGCTGATGAATTGATTCGTTCGAGTAAACAAATTTTCCTAATCTTTCTGTTCAAGCGCCATCTAC”, for which the binding signal is 1.04 RPM ratio (pull-down/input).

Turning to “GATGATTGTTCTCCCAGCTGATGAATTGGCCGCATCGAGTAAACAAATTTTCCTAATCTTTCTGTTCAAGCGCCATCTAC”, the binding signal was 1.03 RPM ratio (pull-down/input).

As to “GATGATTGTTCTCCCAGCTGATGAATTAAGAGGATCGAGTAAACAAATTTTCCTAATCTTTCTGTTCAAGCGCCATCTAC”, the binding signal was 0.917 RPM ratio (pull-down/input).

Take “GATGATTGTTCTCCCAGCTGATGAATTTTTTAGATCGAGTAAACAAATTTTCCTAATCTTTCTGTTCAAGCGCCATCTAC”: the binding signal was 0.923 RPM ratio (pull-down/input).

In the case of “GATGATTGTTCTCCCAGCTGATGAATTTTAGGCCTCGAGTAAACAAATTTTCCTAATCTTTCTGTTCAAGCGCCATCTAC”, the binding signal was 0.823 RPM ratio (pull-down/input).

“GATGATTGTTCTCCCAGCTGATGAATTATGGCCATCGAGTAAACAAATTTTCCTAATCTTTCTGTTCAAGCGCCATCTAC”: the binding signal was 0.984 RPM ratio (pull-down/input).

As for “GATGATTGTTCTCCCAGCTGATGAATTCCGTTCTTCGAGTAAACAAATTTTCCTAATCTTTCTGTTCAAGCGCCATCTAC”, the binding signal was 0.818 RPM ratio (pull-down/input).

On to “GATGATTGTTCTCCCAGCTGATGAATTCGTCCACTCGAGTAAACAAATTTTCCTAATCTTTCTGTTCAAGCGCCATCTAC”, for which the binding signal is 0.852 RPM ratio (pull-down/input).

For “GATGATTGTTCTCCCAGCTGATGAATTTATCTGCTCGAGTAAACAAATTTTCCTAATCTTTCTGTTCAAGCGCCATCTAC”, the binding signal is 1.06 RPM ratio (pull-down/input).

Regarding “GATGATTGTTCTCCCAGCTGATGAATTAGCCTGTTCGAGTAAACAAATTTTCCTAATCTTTCTGTTCAAGCGCCATCTAC”, the binding signal was 0.913 RPM ratio (pull-down/input).

Consider “GATGATTGTTCTCCCAGCTGATGAATTTTAGTGCTCGAGTAAACAAATTTTCCTAATCTTTCTGTTCAAGCGCCATCTAC”, for which the binding signal was 0.983 RPM ratio (pull-down/input).

“GATGATTGTTCTCCCAGCTGATGAATTCATCTTATCGAGTAAACAAATTTTCCTAATCTTTCTGTTCAAGCGCCATCTAC”: the binding signal is 0.961 RPM ratio (pull-down/input).

For “GATGATTGTTCTCCCAGCTGATGAATTCCTCTAATCGAGTAAACAAATTTTCCTAATCTTTCTGTTCAAGCGCCATCTAC”, the binding signal was 0.999 RPM ratio (pull-down/input).
